Measured values as given in patent US20240228578A1 (Five Prime, published 2024).

Molecular target: T1, CTLA-4 (UniProt P16410 36-161, limits assumed)
T1 construct: construct not described; also called cytotoxic T-lymphocyte-associated antigen-4
T1 sequence (looked up): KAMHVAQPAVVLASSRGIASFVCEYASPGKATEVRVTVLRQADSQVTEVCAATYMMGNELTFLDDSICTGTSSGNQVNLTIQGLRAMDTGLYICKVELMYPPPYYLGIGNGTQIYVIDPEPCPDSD
Experiment: CTLA-4 binding ELISA

EC50: 0.034 µg/mL
B1: human CD80 ECD:human IgG Fc fusion protein comprising the amino acid sequence of SEQ ID NO:5 (hCD80ECD:hIgG1Fc) (Fc fusion)
chain: VIHVTKEVKEVATLSCGHNVSVEELAQTRIYWQKEKKMVLTMMSGDMNIWPEYKNRTIFDITNNLSIVILALRPSDEGTYECVVLKYEKDAFKREHLAEVTLSVKADFPTPSISDFEIPTSNIRRIICSTSGGFPEPHLSWLENGEELNAINTTVSQDPETELYAVSSKLDFNMTTNHSFMCLIKYGHLRVNQTFNWNTTKQEHFPDN[… human IgG1 Fc with changes …]
notes: also called Human CD80 ECD Human Fc IgG1 WT
